The record followed here is publication PMC2941464.

Protein sequences, listed by entry. Tags and fused reporters are not part of them.
UniProt Q9UKV8: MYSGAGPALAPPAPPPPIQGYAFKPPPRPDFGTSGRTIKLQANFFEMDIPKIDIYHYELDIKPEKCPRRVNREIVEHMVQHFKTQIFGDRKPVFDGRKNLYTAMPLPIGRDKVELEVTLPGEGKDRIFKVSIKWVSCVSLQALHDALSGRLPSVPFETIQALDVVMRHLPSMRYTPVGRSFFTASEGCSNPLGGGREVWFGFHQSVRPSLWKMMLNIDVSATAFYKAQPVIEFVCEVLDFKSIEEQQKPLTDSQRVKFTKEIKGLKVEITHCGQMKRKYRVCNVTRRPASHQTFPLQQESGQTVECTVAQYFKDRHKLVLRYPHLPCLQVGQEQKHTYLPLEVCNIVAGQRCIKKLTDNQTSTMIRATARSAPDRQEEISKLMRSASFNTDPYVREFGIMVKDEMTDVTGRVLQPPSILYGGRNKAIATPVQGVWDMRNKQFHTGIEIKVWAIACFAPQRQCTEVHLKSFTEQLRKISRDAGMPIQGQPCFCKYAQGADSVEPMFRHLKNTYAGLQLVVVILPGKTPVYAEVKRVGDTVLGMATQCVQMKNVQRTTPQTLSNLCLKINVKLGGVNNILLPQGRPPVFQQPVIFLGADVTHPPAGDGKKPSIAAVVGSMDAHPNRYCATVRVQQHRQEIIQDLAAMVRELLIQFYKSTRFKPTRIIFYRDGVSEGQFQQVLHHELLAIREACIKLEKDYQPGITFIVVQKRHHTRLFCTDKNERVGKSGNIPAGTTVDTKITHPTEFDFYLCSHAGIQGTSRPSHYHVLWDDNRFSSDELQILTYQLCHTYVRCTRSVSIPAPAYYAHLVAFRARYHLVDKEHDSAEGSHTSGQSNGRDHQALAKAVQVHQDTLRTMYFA

Assay [1] deals with T1, QKI-6, endogenous in U343 cells (human (endogenous in U343)) (UniProt Q96PU8).
T1 sequence: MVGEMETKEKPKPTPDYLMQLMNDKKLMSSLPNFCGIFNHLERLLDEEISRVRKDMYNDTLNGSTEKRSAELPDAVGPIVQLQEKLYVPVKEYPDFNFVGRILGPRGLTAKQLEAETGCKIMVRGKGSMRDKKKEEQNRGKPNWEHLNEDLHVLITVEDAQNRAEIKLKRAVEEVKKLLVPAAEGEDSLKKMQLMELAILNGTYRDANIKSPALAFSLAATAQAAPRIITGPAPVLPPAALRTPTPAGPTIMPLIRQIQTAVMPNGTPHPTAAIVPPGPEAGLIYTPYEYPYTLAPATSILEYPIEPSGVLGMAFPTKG
Put plainly: co-IP; endogenous proteins in U343 cell lysate (Triton X-100 lysis buffer); IP with anti-QKI-5, -6 or -7 antibodies (control IgG), blot with anti-Ago2; for QKI-6 also after 1 mg/ml RNase A, 2 U/100 µl RNase V1 or RNase inhibitor at 37°C for 1 hr.

Assay [2] has as its target T2, QKI-5, endogenous in U343 cells (human (endogenous in U343)) (UniProt Q96PU8).
T2 sequence: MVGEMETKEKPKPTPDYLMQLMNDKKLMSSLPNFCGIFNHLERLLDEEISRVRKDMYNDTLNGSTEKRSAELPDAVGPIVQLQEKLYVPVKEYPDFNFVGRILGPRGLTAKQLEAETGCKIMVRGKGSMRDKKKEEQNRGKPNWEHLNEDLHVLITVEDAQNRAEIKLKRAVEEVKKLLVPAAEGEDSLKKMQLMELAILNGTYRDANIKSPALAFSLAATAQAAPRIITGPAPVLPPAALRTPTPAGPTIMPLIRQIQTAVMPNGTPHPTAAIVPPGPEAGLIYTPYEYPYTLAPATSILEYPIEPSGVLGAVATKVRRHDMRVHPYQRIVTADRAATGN
Described as above.

Assay [3] deals with T3, QKI-7, endogenous in U343 cells (human (endogenous in U343)) (UniProt Q96PU8).
T3 sequence: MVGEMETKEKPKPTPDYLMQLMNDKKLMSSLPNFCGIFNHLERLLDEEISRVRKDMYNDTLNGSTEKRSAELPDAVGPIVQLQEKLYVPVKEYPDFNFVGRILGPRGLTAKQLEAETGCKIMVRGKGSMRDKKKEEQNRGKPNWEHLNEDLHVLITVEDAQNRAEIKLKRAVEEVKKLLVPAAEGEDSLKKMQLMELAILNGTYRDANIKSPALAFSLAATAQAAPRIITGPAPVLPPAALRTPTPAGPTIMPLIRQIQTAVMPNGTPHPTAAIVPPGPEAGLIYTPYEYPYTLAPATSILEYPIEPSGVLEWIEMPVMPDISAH
The description is as above.

The next assay addresses T4, GFP-QKI:1-205 (UniProt Q9QYS9).
T4 sequence: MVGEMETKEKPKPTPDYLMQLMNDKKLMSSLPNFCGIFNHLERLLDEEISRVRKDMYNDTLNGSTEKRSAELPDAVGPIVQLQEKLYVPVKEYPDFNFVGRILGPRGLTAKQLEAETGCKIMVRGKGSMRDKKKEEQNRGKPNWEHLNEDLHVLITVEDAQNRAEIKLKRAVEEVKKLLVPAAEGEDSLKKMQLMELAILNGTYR
The experiment in a line: co-IP; HEK293 cells transfected with GFP-QKI-6 or its truncation mutants; lysate (Triton X-100 lysis buffer); IP with anti-GFP, blot with anti-Ago2.

Another assay concerns the target T5, GFP-QKI:1-180 (UniProt Q9QYS9).
T5 sequence: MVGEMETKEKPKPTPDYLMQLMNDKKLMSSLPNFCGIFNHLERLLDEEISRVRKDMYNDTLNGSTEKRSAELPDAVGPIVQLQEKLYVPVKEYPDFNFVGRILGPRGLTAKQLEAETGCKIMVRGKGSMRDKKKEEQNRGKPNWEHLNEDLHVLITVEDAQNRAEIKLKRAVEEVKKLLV
The assay is described as above.

No constants are given. Whether binding was seen depends on the method and setting. In cells and extracts the contact can be indirect. Some entries that bind do so weakly or less than the wild type. For some assays here: Sequences can lack the tags named with a protein.

As for “argonaute 2 (Ago2), endogenous in U343 cells (from UniProt Q9UKV8 1-859)”, the binding result in assay [1], in assay [2] and in assay [3] was “binds” throughout.
Turning to “myc-tagged full-length Ago2 (from UniProt Q9UKV8 1-859)”, the binding result with GFP-QKI:1-205 is “binds”; with GFP-QKI:1-180, “no binding”.
